Source: PubChem BioAssay AID2675 (National Center for Advancing Translational Sciences (NCATS), 2010)
The whole screen tested about 280,000 compounds, of which about 100 (0.036%) were called active. The shares of active, inactive and inconclusive entries below differ from those in the screen. Calls follow the shape of the dose curve; as a rule, active = well fitted inhibition curve with a large enough effect in the signal ratio, with a control signal flat (not every such curve was filed as active); inconclusive = small, poorly fitted or top-dose-only effect, or effect the other way, or a change in a side signal; inactive = no such curve, though single readings can be large or run the other way; the % refers to the signal ratio. Where the call is inconclusive, the potency comes from a doubtful curve fit. A note “side channel” means that the fit belongs to a control or component signal, not to the main read-out.
% is scaled to controls: 0 for no effect and ±100 for the full control effect; potency is read from the fitted curve at half-maximal effect; tags tell the direction and shape of the fitted curve or compound fluorescence and quenching.

What follows are compounds tested against Muscleblind-like protein 1 (Homo sapiens) (UniProt Q9NR56) (assay: qHTS Assay for Inhibitors of MBNL1-poly(CUG) RNA binding). Settings: TR-FRET MBNL1-His/biotin-(CUG)12 binding, 665/545 ratio; activity change, negative = inhibition: at 57.5 µM (top of the series).
UniProt Q9NR56, sequence (Q9NR56 whole entry, looked up): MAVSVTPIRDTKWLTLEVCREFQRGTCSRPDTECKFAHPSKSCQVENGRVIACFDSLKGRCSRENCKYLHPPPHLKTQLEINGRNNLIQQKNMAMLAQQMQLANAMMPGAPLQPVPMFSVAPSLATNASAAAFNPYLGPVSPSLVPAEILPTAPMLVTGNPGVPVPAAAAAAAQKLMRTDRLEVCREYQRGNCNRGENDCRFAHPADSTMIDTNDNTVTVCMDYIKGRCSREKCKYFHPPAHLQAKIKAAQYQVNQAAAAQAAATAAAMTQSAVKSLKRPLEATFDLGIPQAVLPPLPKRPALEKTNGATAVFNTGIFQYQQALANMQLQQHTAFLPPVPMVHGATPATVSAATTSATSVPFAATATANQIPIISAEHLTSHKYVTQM
Outline: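 Inhibition of protein-RNA binding appears as loss of TR-FRET between terbium anti-His antibody on MBNL1-His and streptavidin-XL665 on biotin-(CUG)12. Activity is normalized to buffer-only and uninhibited-complex controls.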
In the case of `CCOc1cc(C(=S)N2CCOCC2)ccc1OS(=O)(=O)c1ccccc1`, the “activity change, negative = inhibition” value is reported as inactive: 1.39%. `Oc1ccc(-c2nc3ccccc3nc2-c2ccccc2)cc1` was tested, and the Potency was inconclusive: 10 µM [quencher, side channel, partial curve]. For `COc1cc(SC)ccc1C(=O)NCCOc1ccc(Cl)cc1`, the Potency was inconclusive: 1.26 µM [fluorescent, side channel, partial curve]. In the case of `COc1ccc(C(=O)CC(=O)C(=O)Nc2ccc(OC)c(Cl)c2)cc1`, the “activity change, negative = inhibition” value is reported as inactive: -5.38%. For `O=c1c(/C=N/O)c(Nc2ccccc2)nc2ccccn12`, the Potency was inconclusive: 12.6 µM [quencher, side channel, partial curve]. With `O=C(N=c1ccn(-c2nc3ccccc3nc2NS(=O)(=O)c2ccccc2)cc1)c1ccccc1Cl` the Potency was inconclusive: 14.1 µM [quencher, side channel, partial curve]. In the case of `O=C(CCN1C(=O)/C(=C/c2ccccc2)SC1=S)N[C@@H](CO)Cc1ccccc1`, the Potency is reported as inconclusive: 28.2 µM [quencher, side channel, single point]. For `O=C(c1ccc(S(=O)(=O)N2CCCCC2)cc1)N1CCN(CCN2C(=O)c3cccc4cccc(c34)C2=O)CC1`, the Potency was inconclusive: 3.16 µM [quencher, side channel, full curve, poor fit]. `COc1cccc(NC(=O)N[C@@H](Cc2ccccc2)C(=O)O)c1` was tested, and the Potency was inconclusive: 8.91 µM [quencher, side channel, single point]. In the case of `O=C(Nc1ccccc1Cl)c1ccc(-n2cccn2)c([N+](=O)[O-])c1`, the Potency is reported as inconclusive: 2.82 µM [quencher, side channel, full curve]. `Cc1c(OC(C)C(=O)O)ccc2c(-c3ccccc3)cc(=O)oc12` (stereo unspecified) was tested, and the Potency was inconclusive: 25.1 µM [quencher, side channel, single point]. For `CCOC(=O)N1CCN(C(=O)CCSc2ccc(Cl)cc2)CC1`, the Potency was inconclusive: 2.82 µM [quencher, side channel, partial curve]. In the case of `S=c1[nH]c2ccccc2n1CCOc1ccccc1`, the “activity change, negative = inhibition” value is reported as inactive: -3.31%. In the case of `CN(C)c1ccc(N=Cc2cccn2C)cc1`, the Potency is reported as inconclusive: 15.8 µM [quencher, side channel, partial curve]. For `COc1ccc(NC(=O)c2ccccc2[N+](=O)[O-])cc1`, the activity change, negative = inhibition was inconclusive: 28.9% [phenotype inactive]. In the case of `COc1ccccc1-n1cc(-c2ccc(Br)cc2)[nH]c1=S`, the “activity change, negative = inhibition” value is reported as inactive: 1.23%. `CCN1C(=O)c2cccc3c(NC(=O)c4ccc(S(=O)(=O)N5CCOCC5)cc4)ccc1c23` was tested, and the Potency was inconclusive: 12.6 µM [quencher, side channel, partial curve]. For `CC1CCN(C2=NC(=O)/C(=C/c3cccc(O)c3)S2)CC1`, the Potency was inconclusive: 31.6 µM [quencher, side channel, single point]. `O=C1c2ccccc2C(=O)c2[nH]cnc21` was tested, and the Potency was inconclusive: 2.24 µM [quencher, side channel, full curve]. With `COc1cc(NC(=O)c2cc(-c3cccnc3)nc3ccc(Br)cc23)cc(OC)c1` the “activity change, negative = inhibition” value was inactive: 3.72%. `O=C1C2CC=CCC2C(=O)N1c1ccc(N2CCN(c3ccccn3)CC2)c([N+](=O)[O-])c1` (stereo unspecified) was tested, and the Potency was inconclusive: 7.94 µM [quencher, side channel, full curve, poor fit]. In the case of `CN(Cc1cnccn1)Cc1ccccc1OCC(O)CN1CCc2ccccc2C1` (stereo unspecified), the Potency is reported as inconclusive: 100 µM [inhibitor, partial curve, poor fit]. With `Cc1ccc2nc(N3CCCCC3)c(C=O)c(=O)n2c1` the Potency was inconclusive: 28.2 µM [quencher, side channel, single point]. `COC(=O)C1=CNC=C(C(=O)OC)C1c1ccc(C(=O)OC)cc1` was tested, and the Potency was inconclusive: 31.6 µM [quencher, side channel, single point]. `COC(=O)c1ccc(C(=O)OC)c(=O)[nH]1` was tested, and the Potency was inconclusive: 6.31 µM [quencher, side channel, full curve]. In the case of `CN(C)c1ccc(N=C/C=C2\N(C)c3ccccc3C2(C)C)cc1`, the Potency is reported as inconclusive: 22.4 µM [quencher, side channel, partial curve]. With `CCOc1ccccc1NC(=O)c1ccc2c(c1)C(=O)N(CC1CCCO1)C2=O` (stereo unspecified) the Potency was inconclusive: 3.55 µM [quencher, side channel, full curve, poor fit]. For `COc1ccc([N+](=O)[O-])cc1NC(=O)c1cncc(Br)c1`, the Potency was inconclusive: 20 µM [quencher, side channel, partial curve]. `Cc1c(Cl)c(-c2n[nH]c(=S)n2CC(C)C)nn1C` was tested, and the Potency was inconclusive: 100 µM [inhibitor, partial curve, poor fit]. With `CCOC(=O)c1ccc2nc(NC(=O)C(C)C)sc2c1` the “activity change, negative = inhibition” value was inactive: -1.3%. For `O=Cc1nc(-c2ccc(Cl)cc2)n2ccccc12`, the Potency was inconclusive: 11.2 µM [quencher, side channel, partial curve]. For `CNC(=O)COC(=O)c1ccc2c(c1)S(=O)(=O)c1ccccc1C2=O`, the Potency was inconclusive: 11.2 µM [quencher, side channel, partial curve]. `NNC(=O)c1cc(-c2ccc(O)cc2)nc2ccc(Br)cc12` was tested, and the Potency was inconclusive: 39.8 µM [quencher, single point]. In the case of `Clc1cccc(/C=N/N2CCN(Cc3ccccc3)CC2)c1`, the “activity change, negative = inhibition” value is reported as inactive: 1.33%. `Cc1ccc(C)c(S(=O)(=O)Nc2nc3ccc(S(N)(=O)=O)cc3s2)c1` was tested, and the “activity change, negative = inhibition” value was inactive: -8.3%. `CCCC(=O)N1CCN(c2nc3c(OC)ccc(Cl)c3s2)CC1` was tested, and the “activity change, negative = inhibition” value was inactive: -0.253%. With `COc1ccc(CNC(=O)COc2cccnc2[N+](=O)[O-])cc1` the Potency was inconclusive: 15.8 µM [quencher, side channel, partial curve]. For `COc1ccc(C2=NN(C(C)=O)CC2c2cccc([N+](=O)[O-])c2)cc1` (stereo unspecified), the Potency was inconclusive: 5.62 µM [quencher, side channel, full curve]. For `C/C(=N/NC(=S)Nc1cccc(C)c1)c1cccc([N+](=O)[O-])c1`, the Potency was inconclusive: 25.1 µM [quencher, side channel, partial curve, poor fit]. In the case of `COc1cccc(OC)c1C(=O)NC(=S)Nc1cc(-c2nc3ccccc3[nH]2)ccc1Cl`, the “activity change, negative = inhibition” value is reported as inactive: 28.7%. In the case of `CCCCNC(=S)NC(=O)c1ccc([N+](=O)[O-])cc1`, the Potency is reported as inconclusive: 12.6 µM [quencher, side channel, partial curve]. In the case of `CC1(c2nnc(-c3ccc(F)cc3)o2)CC(c2ccc([N+](=O)[O-])cc2)=NO1` (stereo unspecified), the Potency is reported as inconclusive: 8.91 µM [quencher, side channel, partial curve]. For `COc1cc(/C=C(\C#N)c2nc3ccc(C)cc3[nH]2)c([N+](=O)[O-])cc1OC`, the Potency was inconclusive: 20 µM [quencher, side channel, partial curve]. With `COc1ccccc1NC(=O)CCCCCN1C(=O)c2cccc([N+](=O)[O-])c2C1=O` the Potency was inconclusive: 14.1 µM [quencher, side channel, partial curve]. With `COc1ccc(C(=O)NCCc2c[nH]c3ccc(OC)cc23)cc1` the “activity change, negative = inhibition” value was inactive: -0.408%. For `CC(=O)C(Sc1ccc2nnc(-c3ccc(C)cc3)n2n1)C(C)=O`, the Potency was inconclusive: 25.1 µM [quencher, side channel, partial curve]. For `COC(=O)c1nn(-c2ccc(Cl)cc2)c(=O)cc1Sc1ccccn1`, the Potency was inconclusive: 10 µM [quencher, side channel, partial curve]. For `COc1ccc(NC(=O)c2ccc3ccccc3c2)cc1`, the “activity change, negative = inhibition” value was inactive: -3.65%. For `COc1ccc(-c2ncc3ccccn23)cc1`, the Potency was inconclusive: 15.8 µM [quencher, side channel, partial curve]. `Cc1ccc(C)c(N(C)S(=O)(=O)c2cccc3nsnc23)c1` was tested, and the Potency was inconclusive: 12.6 µM [quencher, side channel, partial curve]. For `CCC(C)NC(=O)CCCCCn1c(=O)[nH]c2cc(OC)c(OC)cc2c1=O` (stereo unspecified), the “activity change, negative = inhibition” value was inactive: -1.72%. In the case of `O=C(N/C(=C/c1ccc([N+](=O)[O-])cc1)C(=O)N1CCCC1)c1ccccc1`, the Potency is reported as inconclusive: 14.1 µM [quencher, side channel, partial curve]. In the case of `Cc1ccc(C(=O)Nc2ncc([N+](=O)[O-])s2)cc1`, the Potency is reported as inconclusive: 7.94 µM [quencher, side channel, partial curve]. With `CCCCC(=O)NC1(C(F)(F)F)NC(=O)N(Cc2ccccc2)C1=O` (stereo unspecified) the “activity change, negative = inhibition” value was inactive: -11.8%. `CCCCCOP(=O)(OCCCCC)C1(NS(=O)(=O)c2ccccc2)C=CC(=O)c2ccccc21` (stereo unspecified) was tested, and the “activity change, negative = inhibition” value was inactive: -3.32%. For `CCCCCC(=O)Nc1sc(C)c(C)c1C#N`, the “activity change, negative = inhibition” value was inactive: -5.44%. For `COc1cc(/C=N/NC(=O)CNC(=O)/C=C/c2ccco2)cc(OC)c1OC`, the Potency was inconclusive: 14.1 µM [quencher, side channel, partial curve]. For `CCCc1c(C)nn(C(=O)/C(C#N)=N/Nc2ccccc2[N+](=O)[O-])c1C`, the Potency was inconclusive: 10 µM [quencher, side channel, partial curve]. With `COc1ccc([N+](=O)[O-])cc1NC(=O)COC(=O)Cc1cc(OC)c(OC)c(OC)c1` the Potency was inconclusive: 25.1 µM [quencher, side channel, partial curve]. In the case of `Cc1c(-c2ccccc2)[n+](=O)c2c(n1[O-])CCC2`, the Potency is reported as inconclusive: 17.8 µM [quencher, side channel, partial curve]. `CNC(=O)CN(c1ccc(OC)cc1)S(=O)(=O)c1ccc(F)cc1` was tested, and the Potency was inconclusive: 8.91 µM [quencher, side channel, single point].
